Laboratory results taken from PubChem BioAssay AID1346428 (National Center for Advancing Translational Sciences (NCATS), 2018).
Screen size: about 48,000 compounds; about 1,200 (2.5%) were called active. Not shown: some 2% with an inconclusive outcome.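 Rule for the calls: active = activation of at least 60% and not above a set upper limit (about 1 call in 100 departs from these limits); inconclusive = activation of 40% to 60%, or above that upper limit; inactive = activation under 40%.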 Some of the results follow.

target: Probable G-protein coupled receptor 32 (Homo sapiens) (UniProt O75388); assay: qHTS for Agonists of Human Resolvin D1 Receptor DRV1; conditions: CHO-K1 GPR32 beta-arrestin PathHunter luminescence, 90 min; at 76.9 µM; stronger effect = higher value; zero percent set by DMSO-only wells; note: 0% is about no effect
How it was run: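 Luminescent readout of beta-Gal complementation quantifies ligand-induced beta-arrestin association with GPR32 in CHO-K1 cells; 90 min compound incubation at 37 °C, detection 1 h at room temperature.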

Chain of UniProt O75388 (O75388 whole entry, looked up): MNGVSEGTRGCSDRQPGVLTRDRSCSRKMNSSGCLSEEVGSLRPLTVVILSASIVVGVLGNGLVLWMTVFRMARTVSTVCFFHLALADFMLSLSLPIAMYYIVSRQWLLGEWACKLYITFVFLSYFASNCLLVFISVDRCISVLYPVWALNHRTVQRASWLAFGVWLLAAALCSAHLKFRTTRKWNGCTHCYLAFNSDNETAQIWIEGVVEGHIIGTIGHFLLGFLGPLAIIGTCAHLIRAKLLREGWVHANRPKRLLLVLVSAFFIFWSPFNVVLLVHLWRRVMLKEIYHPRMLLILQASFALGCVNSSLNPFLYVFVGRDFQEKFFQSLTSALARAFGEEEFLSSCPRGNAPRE

activation, inactive:
COc1ccc(OC)c(N(C)S(=O)(=O)c2ccc3c(c2)NC(=O)CC(=O)N3)c1 6.24%, COc1ccc(C)cc1NC1(c2ccccc2)C(=O)c2ccccc2C1=O -21.9%, Cc1ccccc1NC(=O)c1sc2nc3n(c(=O)c2c1C)N=C(c1ccccc1)CS3 -11.1%, CN(C)c1ccc(NC(=O)CC(NCc2cccnc2)C(=O)O)cc1 (centres undefined) -7.51%, O=c1c(-c2cc(-c3ccccc3)nc3c2COc2ccc(Cl)cc2-3)coc2ccccc12 -3.18%, COc1ccc(-n2ccn3c(CC(C)(C)CC(=O)O)nnc3c2=O)cc1 8.15%, Cc1ccc(NC(=O)CCCn2c(=O)c3cccn3c3cccnc32)c(C)c1 -9.37%, COc1cccc(CNc2sc3c(c2C(=O)Nc2ccc(OC)cc2OC)CCC3)c1 -10.9%, CCC(Sc1nc2nccnc2c(=O)n1Cc1ccc(Cl)cc1)C(=O)NC1CCCCC1 (centres undefined) -12.3%, CCOc1ccc(NC(=O)c2cnn3c2NC(C)=C(C(=O)Nc2ccc(Cl)cc2)C3c2ccc(OC)c(OC)c2)cc1 (centres undefined) 1.16%, Cc1ccc(-c2cnc(C3CC3)o2)cc1S(=O)(=O)Nc1ccc(F)cc1Cl 17.7%, CC(C)CNC(=O)C(=O)Nc1c2c(nn1-c1ccc(Cl)cc1)CSC2 -12.3%, Cc1cccc(N2CCN(c3ccc4cc(S(=O)(=O)N5CCC(C)CC5)ccc4n3)CC2C)c1 (centres undefined) -13.4%, CC(=O)c1ccc(NC(=O)CSc2nccn2C2CCCC2)cc1 -9.51%, CCCn1c(=O)c2sccc2n2c(CCCC(=O)N3CCN(c4ccc(OC)cc4)CC3)nnc12 7.16%, CC(C)CC(=O)Nc1cccc(-c2cn3cccnc3n2)c1 45.2%, COc1ccc(S(=O)(=O)NC(C)(C)CO)cc1-c1nnc2c3ccccc3c(C)nn12 -19.8%, O=c1c(N2CCN(c3ccc(F)cc3)CC2)csc2ccc(F)cc12 -49.7%, CCOc1ccc(NC(=O)CSc2nc3ccccc3nc2N2CCOCC2)cc1 -4.86%, COc1ccc(CNC(=O)c2cc3cccc4c3n2CC(C)S4)cc1 (centres undefined) -24%, Cc1nn(-c2cccc(Cl)c2)c2nc(-c3cccnc3)cc(C(F)(F)F)c12 0.465%, CC1CCN(S(=O)(=O)c2ccc3nc(Nc4cccc(F)c4)ccc3c2)CC1 13.3%, Cc1ccccc1CSc1nc2c([nH]c3ccccc32)c(=O)n1-c1ccccc1 -13.5%, CCOC(=O)COc1ccc(CC)cc1C(=O)c1ccn2nc(-c3ccc(C)cc3)cc2n1 -7.76%, CCN(CC)CCNC(=O)CN1C(=O)CSc2ccc(S(=O)(=O)N3CCOCC3)cc21 -3.19%, Cc1ccc(/C=C/c2onc(C)c2S(=O)(=O)N2CCC(C(=O)Nc3cccc(C#N)c3)CC2)cc1 -0.355%, Cc1ccc(-c2nnc(Nc3ccc(F)cc3)c3ccccc23)cc1S(=O)(=O)NC(C)C -7.26%, N#Cc1c(C(F)(F)F)cc(-c2cccs2)nc1SCC(=O)Nc1cccc(Br)c1 -15.4%, Cc1ccc(C(=O)N2CCN(c3ccccc3)CC2)cc1NC(=O)c1nsc2ccccc12 -13%, O=C(NCCCN1CCN(c2ccccc2F)CC1)c1ccc2nc(Cc3ccccc3)oc2c1 -20.4%, CCOc1ccc(-c2cc(NC(=O)Nc3ccccc3Cl)c(C(=O)OC)s2)cc1 -0.679%, CCc1nnc2c(NCc3ccccc3)nc3ccccc3n12 10.2%, Cc1ccc(CNC(=O)CN2N=C(c3ccc(C)cc3)CCC2=O)cc1 -18.2%, CCCN(CCC)CCCNC(=O)Cn1ncn2c(cc3sc(CC)cc32)c1=O -2.08%, COc1cc(C(O)C(=O)O)ccc1O (centres undefined) 8.08%, CCN(CC)S(=O)(=O)c1ccc2c(c1)c(=O)c(C(=O)N1CCN(c3ccc(OC)cc3)CC1)cn2C -3.29%, CCc1ccccc1NC(=O)c1nc2nc(C)cc(C(F)F)n2n1 -7.22%, CC(C)c1ccc(NC(=O)C2CCCN(S(=O)(=O)c3ccc4[nH]c(=O)oc4c3)C2)cc1 (centres undefined) -3.74%, Cc1cccc(-c2nnc(SCC(=O)Nc3ccc(C)c(C)c3)o2)c1 -6.91%, COc1ccc2cc1Oc1ccc(cc1)C[C@H]1c3c(cc4c(c3Oc3cc5c(cc3OC)CCN(C)[C@@H]5C2)OCO4)CCN1C -29.5%, Cn1c(-c2cccc(Br)c2)cnc1NCc1cccc(F)c1 -9.13%, CCCS(=O)(=O)c1c(S(=O)(=O)CCC)c2cc(C(C)(C)C)ccn2c1C(=O)c1ccc(C)cc1 5.3%, COc1cc(SC)ccc1C(=O)N1CCn2c3c(c4cc(C)ccc42)CCCC31 (centres undefined) 9.75%, COc1cccc(CN2C(=O)c3ccccc3C2C(=O)NCCc2ccccc2)c1 (centres undefined) -12%, CCC(C)NC(=O)c1ccc(Cn2c(=O)c3cccn3c3cccnc32)cc1 (centres undefined) -8.69%, COc1ccc(Nc2nnc(-c3cc4cc(Cl)ccc4oc3=O)s2)cc1 21.9%, O=C(NCc1ccc(Cl)cc1)C1CCN(C(=O)c2cnn(-c3ccccc3)c2-n2cccc2)CC1 -2.49%, COc1ccccc1CNC(=O)CSc1nc2nc(C)c(Cc3ccccc3C)c(C)n2n1 -9.02%, Cc1ccc(C(=O)Nc2c(C)nc3ccccn3c2=O)cc1 -3.53%, Cc1ccc(C)c(N2CCN(C(=O)CCc3c(C)nn(-c4ccc(N5CCCC5)nn4)c3C)CC2)c1 -11.4%, Oc1c(C(c2cccc(Br)c2)N2CCCC2)sc2nc(-c3ccco3)nn12 (centres undefined) 37.7%, O=C(CCCCCn1c(=O)[nH]c2ccsc2c1=O)NCc1ccccc1 -16.4%, Cc1ccc(-c2nc(CCNC(=O)C(=O)Nc3ccc(C)c(Cl)c3)cs2)cc1 -3.23%, CCCOc1ccc(CNC(=O)CCCN2C(=O)CSc3c2c(C)nn3-c2ccccc2)cc1 13%, CCOC(=O)c1sc(NC(=O)c2nc3nc(C)cc(C(F)F)n3n2)c(C(=O)OC(C)C)c1C -7.41%, COc1ccccc1C(=O)Nc1ccccc1C(=O)OCc1cc(=O)n2ccsc2n1 -1.26%, COc1ccc(C2(N3CCN(c4cc(C)ccc4C)CC3)C(=O)c3ccccc3C2=O)cc1 -16%, CCOc1ccccc1NC(=O)CSc1nc2cc(OC)c(OC)cc2c2nc(CCn3c(C)nc4ccccc43)nn12 1.54%, CCCN(CCC)C(=O)Cn1c(SCc2cccc(F)c2)nc2cccnc21 -18.1%, N#Cc1cccc(NC(=O)C2CCN(S(=O)(=O)c3ccc4c(c3)CCCN4C(=O)C3CCC3)CC2)c1 -8.04%, CC(C)(C)NC(=O)[C@@H]1CN(Cc2cccnc2)CCN1C[C@@H](O)C[C@@H](Cc1ccccc1)C(=O)N[C@H]1c2ccccc2C[C@H]1O -1.87%, Cc1ccc2oc(C(=O)NCC(c3ccc(Cl)cc3)N3CCOCC3)c(C)c2c1 (centres undefined) -27.8%, Cc1nc(-c2ccc(F)cc2)sc1CCNC(=O)c1ccccc1C(F)(F)F 29.4%, Cc1ccc(CNC(=O)c2cc3c(=O)n4cccc(C)c4nc3s2)cc1 6.16%, COc1ccccc1NC(=O)CN1C(=O)C(C)(C)c2ccccc21 11.8%, Cc1ccc(CNC(=O)CN2C(=O)C3CCCCN3c3ccc(C(=O)N(C)C)cc32)cc1 (centres undefined) -22.2%, Cc1cccc(CSc2ncc(Cl)c(C(=O)Nc3nnc(C)s3)n2)c1 -12%, Cc1ccc(S(N)(=O)=O)cc1NC(=O)c1c(-c2c(Cl)cccc2Cl)noc1C -15%, O=C(O)c1ccccc1Nc1cccc(OCc2ccc3ccccc3n2)c1 12.4%, CC1=C(C(=O)Nc2ccccc2C)C(c2sccc2C)n2ncnc2N1 (centres undefined) 17.3%, CN1CCC(N(Cc2cccs2)c2ccccc2)CC1 10.4%, O=C(Nc1nnc(N2CCCC2)s1)Nc1cc(F)ccc1F -2.7%, COc1ccc(NC(=O)CCn2nc(-c3ccc(Cl)cc3)c3ccccc3c2=O)cc1 10.4%, Cc1oc(-c2cccc(Cl)c2)nc1CN1CCC(C(=O)NCc2ccc(F)cc2)CC1 -2.55%, O=C(NCCc1ccccc1)c1c2c(nc3ccccc13)C(=O)N(C1CCCCC1)C2 -21.2%, COc1cccc(NC(=O)Cc2ccc(NC(=O)N3CCCCc4ccccc43)cc2)c1 17.1%, CCCN1C(=O)c2[nH]nc(-c3ccc(F)cc3)c2C1c1ccc(O)c(OCC)c1 (centres undefined) -20.1%, Nc1ccc(N)c([N+](=O)[O-])c1 -103%, O=C(COCCOCCOCC(=O)Nc1c(I)cc(I)c(C(=O)O)c1I)Nc1c(I)cc(I)c(C(=O)O)c1I -44.1%, C=CCOc1cc(Cl)ccc1C(=O)NCCN(CC)CC -14.8%, Cc1cccc(-c2nc3c4ccccc4n(CC(=O)Nc4cc(F)ccc4F)c(=O)n3n2)c1 -4.98%, Cc1ccc(N2C(=O)CSC23C(=O)Nc2ccccc23)cc1F (centres undefined) 3.51%, CCOC(=O)c1c(-c2ccccc2)oc2ccc(OCc3ccc(C)cc3)cc12 -21.5%, Cc1ccccc1Cn1c(=O)n(CCCCC(=O)NCc2ccc3c(c2)OCO3)c(=O)c2ccccc21 -1.7%
